Test results taken from patent publication US20060167109A1, “Methods of reducing rhinovirus contagion and related compositions” (priority 2002, published 2006).

Test system: 101 serotypes of HRVs
Assay: Spectrum of activity in HRV cytopathic effect assay
Conditions: Human rhinovirus sp., read-out: drug concentration range inhibiting replication of 93 of 101 HRVs
Method: To determine the spectrum of activity and potency of pleconaril against the 101 serotypes of HRVs, each virus was tested in a cell culture assay that measured the drug's efficacy against the cytopathic effects of the viruses, in an infected cell monolayer.
HRV stocks were grown in HeLa (WIS) cells in 150 cm^2 flasks, frozen/thawed 3 times, aliquoted and stored frozen at −80° C. The virus inoculum to be used in the assay for each virus was determined as follows. HeLa (WIS) cells were seeded on 96-well tissue culture plates (Costar, 3598) at a density of 2.8×10^4 cells/well in M199 medium (Sigma) supplemented with 5% heat-inactivated newborn bovine serum. Twenty-four hours later, serial 0.5 log10 dilutions of each virus stock were plated in octuplicate onto the cells in complete M199 medium (5% heat-inactivated fetal bovine serum (FBS), 0.15 mM MgCl2, and 7.5 μg/mL diethylamino-dextran (DEAE-dextran)). The plates were incubated for 3 days at 33° C. in a humidified, 2.5% CO2 atmosphere, then fixed with 5% glutaraldehyde and stained with 0.1% crystal violet. After rinsing and drying, the optical density of the wells was read at a wavelength of 570 nm (OD570) on a Bio-Tek model EL-310 plate reader. […] Drug sensitivity of HRVs was determined as previously described (Pevear et al., 1999, supra), except that incubation conditions were at 33° C. in complete M199 medium and 2.5% CO2. […]

Cc1cc(CCCOc2c(C)cc(-c3noc(C(F)(F)F)n3)cc2C)on1 [pleconaril, 3-[3,5-dimethyl-4-[3-(3-methyl-5-isoxazolyl)propoxy]phenyl]-5-(trifluoromethyl)-1,2,4-oxadiazole]
IC50: 0.01 to 6.8 µM
